# Data taken from article PMC4336329 (PLoS ONE, 2015).
# Out of some 310,000 compounds screened, about 2,200 (0.71%) showed an effect of 50% or more. The effect is printed as a negative number. The list shows a part of the results.
# Target: human ether-à-go-go-related gene (hERG) potassium channel (human, UniProt Q12809)
# Test: primary screen, population patch clamp on CHO cells stably expressing hERG
# human ether-à-go-go-related gene (hERG) potassium channel, sequence (Q12809 whole entry, looked up): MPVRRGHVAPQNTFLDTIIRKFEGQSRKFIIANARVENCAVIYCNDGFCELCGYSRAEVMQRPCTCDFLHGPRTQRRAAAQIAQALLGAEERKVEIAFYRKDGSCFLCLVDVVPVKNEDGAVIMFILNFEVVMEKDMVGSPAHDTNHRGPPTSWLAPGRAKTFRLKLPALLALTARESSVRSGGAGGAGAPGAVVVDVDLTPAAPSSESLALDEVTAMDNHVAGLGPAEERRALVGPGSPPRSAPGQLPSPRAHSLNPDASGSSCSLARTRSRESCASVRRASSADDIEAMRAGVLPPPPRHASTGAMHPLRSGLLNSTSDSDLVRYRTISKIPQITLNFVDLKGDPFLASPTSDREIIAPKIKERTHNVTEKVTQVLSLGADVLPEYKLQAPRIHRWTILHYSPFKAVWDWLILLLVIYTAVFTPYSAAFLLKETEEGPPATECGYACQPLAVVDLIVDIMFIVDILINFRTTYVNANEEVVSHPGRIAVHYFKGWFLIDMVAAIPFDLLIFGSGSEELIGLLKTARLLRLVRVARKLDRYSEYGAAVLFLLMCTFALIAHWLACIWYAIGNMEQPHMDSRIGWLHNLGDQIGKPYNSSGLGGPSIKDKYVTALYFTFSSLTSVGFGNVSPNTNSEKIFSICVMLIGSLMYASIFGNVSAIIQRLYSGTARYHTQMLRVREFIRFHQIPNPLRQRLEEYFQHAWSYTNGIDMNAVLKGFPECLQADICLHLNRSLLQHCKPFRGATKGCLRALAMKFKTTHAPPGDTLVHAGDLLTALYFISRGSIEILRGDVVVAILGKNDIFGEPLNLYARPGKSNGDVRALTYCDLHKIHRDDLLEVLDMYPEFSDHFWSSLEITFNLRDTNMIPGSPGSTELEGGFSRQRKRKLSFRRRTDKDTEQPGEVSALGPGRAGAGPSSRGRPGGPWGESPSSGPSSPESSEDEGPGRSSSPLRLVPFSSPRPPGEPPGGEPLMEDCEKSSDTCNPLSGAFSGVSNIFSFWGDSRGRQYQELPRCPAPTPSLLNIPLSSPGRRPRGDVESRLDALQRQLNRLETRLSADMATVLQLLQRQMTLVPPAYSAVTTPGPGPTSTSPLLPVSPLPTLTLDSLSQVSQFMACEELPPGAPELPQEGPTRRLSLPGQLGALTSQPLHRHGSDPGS
row,SMILES,"hERG current change (%, negative = inhibition) at 1uM [%]"
1,CC(C)CCn1c(SCC(=O)Nc2ccccc2C(F)(F)F)nc2nccnc2c1=O,-1.4
2,C=C1C(=O)O[C@@H]2C[C@@H](C)[C@@H]3C=CC(=O)[C@@]3(C)[C@@H](OC(C)=O)[C@H]12,8.9
3,COc1ccc(OC(=O)Nc2ccccc2)cc1,8.17
4,COC(=O)CN(c1ccccc1C)S(C)(=O)=O,20.6
5,COC(=O)N1CCN(c2ccc(Cl)c(Cl)c2)CC1,12.8
6,Cc1cc(NS(=O)(=O)c2ccc(NC(=O)COc3cc(C)c(Cl)c(C)c3)cc2)no1,10.7
7,O=C(CCC(=O)N1CCOc2ccc(Cl)cc21)NCCN1CCOCC1,14.2
8,COCCNC(=O)c1ccc2ccccc2n1,7.91
9,COCCN1C(=O)C(=O)/C(=C(/O)c2ccc(S(=O)(=O)N3CCOCC3)cc2)C1c1cccc(OC)c1 (centres unmarked),12.9
10,Cc1nn(S(=O)(=O)c2ccc(F)cc2)c(C)c1S(=O)(=O)N1CCCCC1,11.8
11,Cc1onc(-c2ccccc2)c1C(=O)Nc1nnc(N(C)Cc2ccccc2)s1,4.13
12,CC1CCCN(C(=O)c2ccc3c(c2)OCCO3)C1 (centres unmarked),16.3
13,COc1ccccc1Nc1nc(-c2cccnc2)cs1,0.499
14,COc1ccc(OC)c(-n2c(=O)c3ccccc3c3ccccc3c2=O)c1,11.9
15,COc1ccc(CNC(=O)c2ccc(N3CCCC3=O)cc2)cc1,0.232
16,CCCCN(C(=O)c1cccc(S(=O)(=O)N2CC(C)OC(C)C2)c1)c1c(N)n(CCCC)c(=O)[nH]c1=O (centres unmarked),9.63
17,CC(=O)Nc1ccc2c(c1)nc(C)n2-c1ccccc1,14.5
18,Cc1ccc(C(=O)NN2CCOCC2)cc1,3.45
19,C=C(C(=O)O)C1CCC2(C)CCCC(C)(O)C2C1 (centres unmarked),9.95
20,Cc1ccnc(NS(=O)(=O)c2ccc(NS(C)(=O)=O)cc2)n1,13.5
21,O=C(c1ccc(COc2ccccc2[N+](=O)[O-])o1)N1CCCCCC1,8.59
22,CCO[C@@H]1OC(C(=O)O)=C[C@H](c2coc3ccccc3c2=O)[C@H]1CCCO,20.9

row,SMILES,"hERG current change (%, negative = inhibition) at 1uM [%]"
1,CCNS(=O)(=O)c1ccc(OC)c(C)c1,17.5
2,CCOC(=O)C1=C(c2ccccc2)OC(N)=C(C#N)C1C1CCCCC1 (centres unmarked),6.49
3,O=C(CSc1n[nH]c(=O)[nH]c1=O)c1ccccc1,11.8
4,COc1ccc(NC(=O)COc2coc(CN3CCCc4ccccc43)cc2=O)cc1,-6.97
5,NC(=O)C1CCN(CC(=O)Nc2ccccc2C(=O)NC2CC2)CC1,10.7
6,CCN(Cc1ccccc1)S(=O)(=O)c1c(C)[nH]c(C)c1C(=O)N1CCCCC1,1.43
7,CCOC(=O)N1CCN(C(=O)Cn2nc(C)n3nc(-c4ccc(OC)cc4)cc3c2=O)CC1,13.8
8,COCCCNC(=O)CN(c1cc(Cl)ccc1OC)S(=O)(=O)c1ccc(C)c([N+](=O)[O-])c1,10.6
9,CC1CCCCN1C(=O)Cn1cc(C=O)c2ccccc21 (centres unmarked),0.694
10,CC1CCCCN1c1nnc(NC(=O)c2cc(-c3ccc(Br)cc3)on2)s1 (centres unmarked),-0.29
11,O=C(Nc1cccnc1)c1c(F)c(F)c(F)c(F)c1F,1.27
12,COc1ccc(C(=O)NCc2nnc(SCC(=O)c3ccccc3)n2C)cc1OC,-5.16
13,O=C(O)c1cc(-c2ccccc2)nc(-c2ccccc2)c1,11.1
14,CCOC(=O)N1CCN(C2=NC3(CCCCC3)C(C#N)C(=O)N2)CC1 (centres unmarked),5.2
15,CCCC1=[N+](CC(C)=O)CCn2c(C)ccc21.[Br-],11.9
16,COCCNC(=O)c1csc(Nc2cccc3ccccc23)n1,7.31
17,Cc1cc2ccccc2c(=O)n1CC(=O)NCC(=O)N1CCCC1,6.44
18,COc1ccc([N+](=O)[O-])cc1NC(=O)Nc1ccccc1,16.5
19,Clc1ccc(OCc2nnc(-c3ccccc3Br)o2)c(Cl)c1,11
20,O=C(OC(C(=O)Nc1ccc(Cl)c(C(F)(F)F)c1)c1ccccc1)C1=COCCO1 (centres unmarked),10
21,CCN(Cc1ccncc1)C(=O)c1cc(COc2ccc(C)c(C)c2)on1,-5.56
22,O=C(COc1ccccc1)N1CCN(S(=O)(=O)c2cccs2)CC1,-7.49
